The other results are listed elsewhere or left out.
Test system: PfHDP1 homeodomain (GST-tagged)
Experiment: gcPBM binding intensity (ln(normalized median fluorescence intensity)); higher = stronger DNA binding
How it was run: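 Binding of GST-tagged P. falciparum DNA-binding domains, expressed in E. coli and used at about 25 μg on average, was carried out for 1 h in 1× PBS containing 1% milk, 0.2 mg/ml BSA, 0.5% salmon testes DNA and 0.03% Triton X-100. The target was an Agilent 4 × 180k array of primer-extended double-stranded 36-bp intergenic genomic probes plus negative controls, read with Alexa488 anti-GST antibody at 488 nm. Binding intensity is the highest Masliner-normalised natural-log median intensity across replicate spots of either probe orientation.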

Sequence | gcPBM binding intensity (ln)
ATATAGTAAAATTATACACACATGAATTTTCCCATA [CACACA_site3113] | 6.54
CCATTAAATACATACACACCCACACCCAAAAAAAAA [CACACA_site4633] | 7.16
TAATTTATTATATTTTGTACGTAAAATTATTATTGT [XGTACX_site8155] | 6.12
TAGGAAAAGAAAAGCACACACATAAATAAATATATA [CACACA_site504] | 6.47
AATATATATTTATATTGTACATATATATATATTTCT [XGTACX_site2603] | 6.4
AATATTTATTTTACATGTACTTATTTTTCTTTTAAC [XGTACX_site3631] | 6.72
TAAAAATATATACATACATGCATACATATATATGTA [TGCATGCA_site774] | 6.47
CAAGCCCTTCTGCTTACACACAGTAATTATTGTGTA [CACACA_site2953] | 6.3
TTTTTAACATATCATACACACAACAACTTTTTATAG [CACACA_site1962] | 6.74
ATTATATATACACGCACACACACTTATATATATATA [CACACA_site9093] | 8.99
CATTCATTTATTAATTGTACTTTTAAGGTTAAATAA [XGTACX_site5838] | 5.99
ATTAAATGCAGTTCGGTGCATTAAGGTTATGATGAA [GTGCAC_site9883] | 10.7
TAAACATTTTTGCACGCACACAAAAAAAAAATAAAA [CACACA_site167] | 10.4
ATTTTTTAACATATCATACACACAACCACTTTTTAT [CACACA_site1961] | 6.91
CACATACAGACATACACACACATATAGATTAATATA [CACACA_site6399] | 7.02
TATATATATATATTATGTACATATATATTAAATATG [XGTACX_site2494] | 8.71
AATAAGAAATGTAAATGTACATAAAAAAAAGTATAT [XGTACX_site3573] | 7.11
TTAGGGTTTTATAAATGTACTTATTTATACATCCTC [XGTACX_site5769] | 6.2
TTTATATACTATTCAAAGTGATAAATAATATATGAA [TGCATGCA_negctrl_site352] | 6.12
TATAAATAAAGACACACACACATATAAATAAATATA [CACACA_site7155] | 6.84
ATTTATTTATTAAGATGTACTTATTAAAAATAATAA [XGTACX_site7392] | 6.01
AAAAAAAAAAAACATACACACAATAAAATAGGGGTA [CACACA_site2399] | 6.45

Sequence | gcPBM binding intensity (ln)
TATTTATATTTTAACACACACATATTTATATTTATA [CACACA_site7324] | 6.54
ATTTATTCATTTGGGTGTACTATTTAAAAAAAACAA [XGTACX_site498] | 6.89
TATATATAATTTTATACATGCACATATTATATATAT [TGCATGCA_site1036] | 8.4
TATATTTTTTAAACCACACACAATATAGAGTATAAT [CACACA_site4510] | 6.92
TTTTTTTTTATATTTAGTACATATATATTATTATAT [XGTACX_site3334] | 6.49
ACAAGATGATGGAAATGTACATAAAAAGAATCATAT [XGTACX_site8682] | 7.37
AACACTACATAAAACTGTACAATAGTATTTTATTAT [XGTACX_site996] | 6.2
CTTAGTGTATTTGAATGTACGCATAAATATAATTAT [XGTACX_site2830] | 6.66
ATTATTAAAATGATATGTACGCACATAATATACATA [XGTACX_site3236] | 6.72
TATATATTAATATATGCATGTACGATTATTATAATA [TGCATGCA_site446] | 6.96
AAAAAAAAAAAACATACACACAAATATGTACATACA [CACACA_site7807] | 6.57
TAAATACAAAAATGTACACACATATAAATATTTTTA [CACACA_site7612] | 6.25
AATAAAAATCCACAAGCACACAAATGTACTTATATA [CACACA_site8783] | 6.24
ATAATATTTTGAAACGGTACACTTTTAAAATACACT [XGTACX_site4423] | 6.55
AAAATAAGGAAAAAAAAAAAAAAAAAAAAAAAAAAG [CACACA_negctrl_site1291] | 5.89
AAAGTGTTAACCTAATCTTTAGTTTTTAAACAATAT [CACACA_negctrl_site841] | 5.97
TATTGAAACGTATAGACACACATATGATATATATAT [CACACA_site3226] | 8.09
ATTTATTTATTTATATGTACTTATATATGTATTTTC [XGTACX_site6269] | 6.56
TGTATTTAAAATGGTTGTACATAAATAAAAATAAAA [XGTACX_site7771] | 6.74
TTAATTAAATATTATACACACAAAAAAATAACTTTA [CACACA_site6197] | 6.43
GAAAATTTTTGGTGTACACAAAAAAATCCAAAAAAA [CACACA_site5042] | 7.07
TATGATTGTTTACGTTGTACAGCTGAATTGTTCTTA [XGTACX_site8114] | 6.18

Sequence | gcPBM binding intensity (ln)
TGAAAATAGTTAATTTGTACACAAAAATTAAGAAAA [XGTACX_site5794] | 6.62
AATTAAATAAATGTATGTACATAATAAATATGTATT [XGTACX_site4379] | 6.15
TTTTATTTTATAAAAATAAAAAAAAAATTATTACAA [TGCATGCA_negctrl_site508] | 6.07
TATGAAAATATATATTGTACAGAATCTATAAAAAAT [XGTACX_site8030] | 6.39
AAAGAAATATATACAAAAATATGAACAATTTATTAT [XGTACX_negctrl_site78] | 6.22
TTTTCGATGTTGGTAGGATGTATGGTACACGTAGTA [TGCATGCA_negctrl_site61] | 6.59
GAGTTTACACTCCCTTGTACATATTCATTTTTATTC [XGTACX_site5208] | 7.02
TGAATAAATATATATACACACATATATGTATATATT [CACACA_site1642] | 6.38
TATATATATAATATATGTACATATTAATTATGTATA [XGTACX_site5366] | 7.4
AATAAAAGATCATTTATTCTTTTTTTTCTTTTTAAA [CACACA_negctrl_site1256] | 5.88
TAAATAAATTTATACACACACACACCGATATATATA [CACACA_site4622] | 7.24
GAATGCCTTGAAAATAGTACAATTAAGAAAAAATAC [XGTACX_site8002] | 6.53
AAAATACATAAACGTTCACACATTTAAGATAACGAG [CACACA_site5345] | 6.37
TTTTTTTTTTTTTACACACACAAAATATTATCTGTA [CACACA_site5378] | 6.59
AATGAAATAAAATAAAGTACATATATGTAAAAGTAG [XGTACX_site5650] | 7.44
ATATATATAATATGATGTACATATTTATTTATATAT [XGTACX_site7333] | 6.74
AATTGAAAAGAATGAAGTACACATTTGATGATACAT [XGTACX_site5182] | 6.35
ATATAAAAAAAAGATGAAAAAAAAAATGAAAGAAAG [CACACA_negctrl_site1266] | 6.6
TATATGAAGCTATAGACACACATATAAAAATATAAT [CACACA_site4850] | 6.49
GAATTTATGAACTGTGCATGTAAAAAAAACAACAAA [TGCATGCA_site449] | 8.31
TATAATAATATATATTGTACACACAAAATGGGAAAA [XGTACX_site3911] | 7.17
TACATCTGTAATGTGTGTACATATATGTATATATTT [XGTACX_site1805] | 6.7

Sequence | gcPBM binding intensity (ln)
CATAAACTTTTTAACACACACTTATATATATATATA [CACACA_site4747] | 9.16
AAAAATTCTTTTTCATCTATATGCAGAAAGAAAAAG [CACACA_negctrl_site1201] | 5.9
CTAAATAAAGTTAACACACACATAATATATATATGT [CACACA_site486] | 6.43
TAATTTTTATGAAGAAGTACAAAATCTACTATCATA [XGTACX_site4985] | 5.6
ATAAAAATATGATCAACACACGATTAAATATTCATA [CACACA_site1495] | 6.39
AGAAATACAAAATAAATATAAGAAACAAAATATTTA [CACACA_negctrl_site780] | 6.52
AAAAGGTTATCAATATGTACATATTTTTTTATTTTT [XGTACX_site3277] | 6.4
TGAAAAATAAATAAATGTACATATATATATATATAC [XGTACX_site7310] | 6.72
TATTTCATCATATTGTGTACTTAATTTATATAATTA [XGTACX_site5753] | 6.78
TTTTAATTAAAACACACACACACATATATATATATA [CACACA_site2291] | 9.11
GTATCAAAAGAATACACACACACATACATATATATA [CACACA_site3796] | 6.99
ATTTTAGAATAAATTTTTTACATTAAAAAACTATTT [CACACA_negctrl_site1414] | 5.93
ACTCTCTTATATTAAACACACATATTTATAGGTATA [CACACA_site7302] | 7.05
TGAACATATTAAAATTGTACATATGCACAATATGTA [XGTACX_site6801] | 9.28
AAGGATATAACATACACACACACACGGATATAAATA [CACACA_site7867] | 6.85
CATACAATAAATATGGTGCATTTTATGTAACCGTTT [GTGCAC_site9420] | 9.78
CATCTAAATTGTAGTTGTACACCTTAATCTTATTAC [XGTACX_site7547] | 7.69
TATTTTATCATTTGCACACGCACACCGACATAAAAA [CACACA_site4348] | 10.6
AAAAAAAAAAAAATGTAATTTTTTAATTATTTATAT [GTGCAC_negctrl_site436] | 6.27
CATATATTTTTGTATAGTACTTTTTTTATTCGTTTT [XGTACX_site1860] | 6.61
TAAAAGTTAATATAAACACACAAAAATTAATAAATA [CACACA_site6316] | 6.44
AATTTCTATTTTGTGAGTACATACTCCTATTATATA [XGTACX_site3210] | 6.67
